According to PubChem BioAssay AID504333 (National Center for Advancing Translational Sciences (NCATS), 2011):
The whole screen tested about 360,000 compounds, of which about 16,000 (4.4%) were called active. The inconclusive results got no clear call from the source; some entries with a clear call stand among them for comparison. Calls come from the whole dose curve; as a rule, active = well fitted inhibition curve with a large enough effect; inconclusive = small, poorly fitted or top-dose-only effect; inactive = no such curve, though single readings can be large or run the other way. Potencies beside an inconclusive call are fits to weak or partial responses and may not hold up.

These compounds were tested against Bromodomain adjacent to zinc finger domain protein 2B (Homo sapiens) (UniProt Q9UIF8) (assay: qHTS Assay for Inhibitors of BAZ2B). Settings: AlphaScreen BAZ2B-H3K14Ac peptide displacement; activity change, negative = inhibition: at 114 µM (top of the series).
Method in brief: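 Complex of BAZ2B and biotin-H3K14Ac (50 nM apiece) forms over 30 min at RT, then faces library compounds up to 110 uM for another 30 min; AlphaScreen beads added, 20 min dark incubation, luminescence read.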
% is set by controls: 0 for no effect and ±100 for the full control effect; potency is the fitted concentration of half-maximal effect; tags give direction and shape of the fitted curve.
Note: nearly all actives have a fitted effect of over 60% in size.

UniProt Q9UIF8, sequence (Q9UIF8 whole entry, looked up, the tested form may be a part): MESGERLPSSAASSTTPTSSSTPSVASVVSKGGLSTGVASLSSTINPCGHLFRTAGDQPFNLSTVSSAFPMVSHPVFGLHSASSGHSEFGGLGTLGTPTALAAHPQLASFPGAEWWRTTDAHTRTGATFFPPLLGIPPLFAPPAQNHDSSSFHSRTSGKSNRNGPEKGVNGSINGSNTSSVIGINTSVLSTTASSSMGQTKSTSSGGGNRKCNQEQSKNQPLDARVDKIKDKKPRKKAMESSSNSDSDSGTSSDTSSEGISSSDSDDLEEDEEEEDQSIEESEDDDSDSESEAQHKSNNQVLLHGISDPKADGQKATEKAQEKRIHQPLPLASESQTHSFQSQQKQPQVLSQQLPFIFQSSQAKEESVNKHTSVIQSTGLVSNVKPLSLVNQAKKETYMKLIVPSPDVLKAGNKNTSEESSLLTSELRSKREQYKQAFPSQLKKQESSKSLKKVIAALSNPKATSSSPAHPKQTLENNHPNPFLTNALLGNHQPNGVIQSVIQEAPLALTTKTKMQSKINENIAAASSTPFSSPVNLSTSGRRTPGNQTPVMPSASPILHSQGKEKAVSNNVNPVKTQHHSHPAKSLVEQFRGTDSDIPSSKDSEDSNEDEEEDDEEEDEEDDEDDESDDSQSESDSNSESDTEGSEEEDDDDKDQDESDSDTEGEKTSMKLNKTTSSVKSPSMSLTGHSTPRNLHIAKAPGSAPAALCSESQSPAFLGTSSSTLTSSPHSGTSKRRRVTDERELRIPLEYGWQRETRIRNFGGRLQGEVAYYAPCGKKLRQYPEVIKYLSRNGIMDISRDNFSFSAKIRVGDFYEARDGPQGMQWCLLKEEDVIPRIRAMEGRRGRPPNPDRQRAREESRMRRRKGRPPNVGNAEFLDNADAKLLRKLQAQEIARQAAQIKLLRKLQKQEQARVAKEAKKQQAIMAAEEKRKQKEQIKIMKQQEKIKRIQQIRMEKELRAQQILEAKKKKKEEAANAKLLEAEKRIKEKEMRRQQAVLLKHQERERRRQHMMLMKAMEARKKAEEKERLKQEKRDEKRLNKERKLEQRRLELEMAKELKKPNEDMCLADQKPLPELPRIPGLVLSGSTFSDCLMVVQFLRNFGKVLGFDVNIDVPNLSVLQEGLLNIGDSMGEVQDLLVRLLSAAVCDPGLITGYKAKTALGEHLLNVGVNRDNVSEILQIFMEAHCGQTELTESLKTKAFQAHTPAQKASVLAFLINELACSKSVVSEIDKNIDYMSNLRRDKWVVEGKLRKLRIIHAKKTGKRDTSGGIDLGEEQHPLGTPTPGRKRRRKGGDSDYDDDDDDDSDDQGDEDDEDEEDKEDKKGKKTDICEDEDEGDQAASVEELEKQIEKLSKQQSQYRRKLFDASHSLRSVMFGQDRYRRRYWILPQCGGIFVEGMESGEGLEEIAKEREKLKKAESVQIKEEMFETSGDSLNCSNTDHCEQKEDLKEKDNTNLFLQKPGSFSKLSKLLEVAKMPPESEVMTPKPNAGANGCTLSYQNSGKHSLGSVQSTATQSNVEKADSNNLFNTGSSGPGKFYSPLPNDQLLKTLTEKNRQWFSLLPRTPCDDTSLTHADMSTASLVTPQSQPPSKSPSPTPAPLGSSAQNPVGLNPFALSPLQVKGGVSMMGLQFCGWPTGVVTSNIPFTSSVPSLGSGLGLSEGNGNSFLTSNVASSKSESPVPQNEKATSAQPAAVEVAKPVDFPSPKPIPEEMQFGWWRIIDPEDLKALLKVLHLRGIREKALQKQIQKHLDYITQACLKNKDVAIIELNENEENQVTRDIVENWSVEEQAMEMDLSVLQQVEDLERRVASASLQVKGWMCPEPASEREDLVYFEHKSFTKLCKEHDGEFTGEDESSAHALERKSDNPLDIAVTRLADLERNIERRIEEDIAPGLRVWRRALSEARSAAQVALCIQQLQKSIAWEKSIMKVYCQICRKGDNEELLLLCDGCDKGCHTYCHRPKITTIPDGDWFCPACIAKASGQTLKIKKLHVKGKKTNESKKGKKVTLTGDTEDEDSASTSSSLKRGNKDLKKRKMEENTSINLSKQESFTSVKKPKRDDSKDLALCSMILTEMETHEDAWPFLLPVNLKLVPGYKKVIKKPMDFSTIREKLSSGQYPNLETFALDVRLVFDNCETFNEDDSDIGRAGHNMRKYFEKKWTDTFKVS

Structure (SMILES)	Potency	activity change, negative = inhibition
CC[n+]1ccccc1/C=C/c1ccc(N(C)C)cc1	inconclusive: 50.1 µM [inhibitor, partial curve]	–
Cn1ccnc1C1CCCCN1C(=O)c1cc(COc2ccc(F)cc2Cl)on1 (stereo not drawn)	inconclusive: 44.7 µM [inhibitor, partial curve]	–
Cc1cc(C)nc(NC(=O)c2cc(-c3ccc(C)s3)nc3ccccc23)c1	–	inactive: 24.2%
COc1cc(OC)c(OC)cc1/C=N/n1c(-c2n[nH]c3c2CCC3)n[nH]c1=S	–	inactive: -22.4%
CCc1ccc(N(CC)C(=O)c2sc3nc4n(c(=O)c3c2C)CCCC4)cc1	active: 25.1 µM	–
Cc1c(CC(=O)N2CCN(C(=O)C3COc4ccccc4O3)CC2)c(=O)oc2c(O)c(O)ccc12 (stereo not drawn)	active: 7.94 µM	–
CCOC(=O)N1CCC(N2Cc3cccc(C(=O)Nc4ccc(F)cc4)c3C2=O)CC1	inconclusive: 100 µM [inhibitor, single point]	–
C(=N\Nc1nncc2ccccc12)/c1ccccn1	active: 25.1 µM	–
CCOc1ccc(CCNC(=O)c2ccc(-c3nc(CSc4ccccc4)c(C)o3)cc2)cc1	–	inactive: -3.66%
COc1cc(/C=C/C(=O)O)cc(S(=O)(=O)N2CCCc3ccccc32)c1OC	–	inactive: -18.8%
O=C(N/N=C/c1ccc(O)c2ncccc12)c1cccc(Br)c1	active: 8.91 µM	–
CCOC(=O)c1c(NC(=O)c2ccn(CC)n2)sc2c1CCCC2	–	inactive: 9.58%
COc1ccc(N(C(=O)c2cccc(C)c2)S(=O)(=O)c2ccc3c(c2)n(C)c(=O)n3C)cc1	inconclusive: 56.2 µM [inhibitor, single point]	–
CCn1c(C)[n+](CC)c2ccc(S(=O)(=O)N(C)C)cc21	inconclusive: 89.1 µM [inhibitor, single point]	–
Oc1ccc(Nc2nc(-c3cccnc3)cs2)cc1	inconclusive: 89.1 µM [inhibitor, single point]	–
COc1ccc(N2CCN(C(=O)c3ccc(N4CCCCS4(=O)=O)cc3)CC2)cc1	active: 50.1 µM	–
Cc1ccnc(NC(=O)CCC(=O)N(CC(=O)NCCc2ccccc2)Cc2ccco2)c1	inconclusive: 79.4 µM [inhibitor, partial curve]	–
CCOC(=O)N1CCc2c(sc(NC(=O)CN3CCOCC3)c2C(=O)Nc2ccccc2)C1	inconclusive: 79.4 µM [inhibitor, single point]	–
CCCc1c(C(=O)OCC)sc(N)c1C#N	inconclusive: 89.1 µM [inhibitor, single point]	–
CCOC(=O)/C=C/C(=O)OCC(=O)N1CCN(C(=O)c2ccco2)CC1	–	inactive: -27.9%
Cc1nn(C)c(C)c1S(=O)(=O)N1CCCC(C(=O)N2CCN(c3ccccc3)CC2)C1 (stereo not drawn)	–	inactive: -2.31%
CC(C)CC1Nc2ncnc(N3CCCCC3)c2N(Cc2ccccc2)C1=O (stereo not drawn)	inconclusive: 50.1 µM [inhibitor, partial curve]	–
CCOC(=O)c1c(NC(=O)c2c(C(=O)O)cccc2[N+](=O)[O-])sc2c1CCCC2	–	inactive: -23.7%
O=C(OCC(=O)N1CCN(c2ccccc2)CC1)c1ccc2ncsc2c1	inconclusive: 89.1 µM [inhibitor, single point]	–
O=C(CCC1N=C2c3ccccc3N=C(SCc3cccc(Cl)c3)N2C1=O)N1CCN(c2ccccc2)CC1 (stereo not drawn)	–	inactive: -27.2%

Structure (SMILES)	Potency	activity change, negative = inhibition
CCc1cc(OCCOCCN(C)C)ccc1Cl	inconclusive: 89.1 µM [inhibitor, single point]	–
COc1ccc(C(CCN2CCCC(C)C2)c2c(OC)cc(OC)c3c(-c4ccccc4)cc(=O)oc23)cc1 (stereo not drawn)	–	inactive: -36.8%
CC1(C)OC(c2ccccc2)=C/C(=C/C=C2C(=O)c3ccccc3C2=O)O1	active: 1.41 µM	–
CN(c1ccccc1C(=O)NCc1ccco1)S(C)(=O)=O	inconclusive: 89.1 µM [inhibitor, single point]	–
CN(C)/C=N/S(=O)(=O)c1cccn1-c1ncc(C(F)(F)F)cc1Cl	inconclusive: 70.8 µM [inhibitor, single point]	–
COc1ccc(C(=O)C2CCCN(Cc3cccn3-c3ccccn3)C2)cc1F (stereo not drawn)	inconclusive: 89.1 µM [inhibitor, single point]	–
O=C(NCCCN1CCOCC1)C1CC(=O)N(C2CCCCC2)C1 (stereo not drawn)	inconclusive: 89.1 µM [inhibitor, single point]	–
Cc1ccc(-c2nn(-c3cccc(F)c3)cc2CN2CCN(c3ccccn3)CC2)o1	active: 50.1 µM	–
COc1ccccc1NNC(=O)c1cc(C(C)(C)C)nn1Cc1ccccc1	inconclusive: 79.4 µM [inhibitor, partial curve]	–
C/C(=N/NC(=O)C1CCCN1C(=O)c1ccc([N+](=O)[O-])cc1)c1ccc(Br)cc1 (stereo not drawn)	–	inactive: -35.2%
COc1ccc(C2C(C(C)=O)=C(C)Nc3ncnn32)cc1 (stereo not drawn)	–	inactive: 5.05%
CCOc1ccc2nc(NC(=O)C(CCSC)NS(=O)(=O)c3cccs3)sc2c1 (stereo not drawn)	inconclusive: 28.2 µM [inhibitor, single point]	–
O=C(CSc1nc(NS(=O)(=O)c2ccccc2)cc(=O)[nH]1)Nc1ccccc1C(F)(F)F	inconclusive: 89.1 µM [inhibitor, single point]	–
FC(F)Oc1ccc(/C=N/n2c(Cc3ccc(Br)cc3)n[nH]c2=S)cc1	inconclusive: 50.1 µM [inhibitor, partial curve]	–
C[C@H](O)c1[nH]c2cc(F)ccc2c1[C@H](C)O	–	inactive: 0.672% [at 57.1 µM]
COc1ccc(CCNC(=O)Nc2cccs2)c(OC)c1	inconclusive: 79.4 µM [inhibitor, single point]	–
COc1ccc(OCc2cc(C(=O)N3CCCC(O)C3)no2)c2ccccc12 (stereo not drawn)	inconclusive: 39.8 µM [inhibitor, partial curve]	–
CN(Cc1ccc(Br)cc1)C(=O)CCN1C(=O)c2cccc([N+](=O)[O-])c2C1=O	inconclusive: 50.1 µM [inhibitor, partial curve]	–
COc1ccc(Nc2nc(NCc3ccco3)nc(N/N=C/c3ccccc3)n2)cc1	active: 79.4 µM	–
CN(C)/N=C/c1cc([N+](=O)[O-])ccc1O	inconclusive: 44.7 µM [inhibitor, partial curve]	–
Brc1ccc(OCc2nc(-c3ccccn3)n[nH]2)cc1	active: 28.2 µM	–
CC(C)[C@H](NC(=O)N1c2ccccc2NC(=O)[C@@H]1C(C)C)C(=O)N1CCC[C@H]1C(=O)O	inconclusive: 89.1 µM [inhibitor, single point]	–
O=C(Cc1ccc(-n2c(=O)[nH]c3ccsc3c2=O)cc1)N1CCN(c2ccc(Cl)cc2)CC1	inconclusive: 79.4 µM [inhibitor, single point]	–
Cc1cccc(N2CCN(S(=O)(=O)c3cc(Cl)ccc3Cl)CC2)c1C	–	inactive: -2.49%
O=C(CSc1nc2ccccc2s1)NCCOc1ccc(Cl)cc1	–	inactive: 5.13% [at 57.1 µM]

Structure (SMILES)	Potency	activity change, negative = inhibition
CC1(C)C(c2cccs2)=[N+]([O-])C2(CCCCC2=O)N1O (stereo not drawn)	inconclusive: 39.8 µM [inhibitor, partial curve]	–
Cn1c2ccccc2c2cnn(CC(=O)N3CCN(c4cccc(C(F)(F)F)c4)CC3)c(=O)c21	–	inactive: -2.31%
Cc1nn(CC(=O)N2CCN(c3ccccc3)CC2)c(C)c1[N+](=O)[O-]	–	inactive: -4.59%
COc1ccc(C2Nc3cccc4cccc(c34)N2)cc1Br	active: 44.7 µM	–
O=S(=O)(c1cccc2cnccc12)N1CCNCC1	inconclusive: 89.1 µM [inhibitor, single point]	–
CON(C)c1nc(OCCNC(=O)OCc2ccc(Cl)cc2C)nc(N(C)C)n1	inconclusive: 89.1 µM [inhibitor, single point]	–
COc1cc(/C=N/NC(=S)Nc2cccnc2)cc(OC)c1OC	–	inactive: 3.17%
Cc1cccc(NC(=S)N2CCn3cccc3C2c2cccnc2)c1 (stereo not drawn)	inconclusive: 79.4 µM [inhibitor, single point]	–
CCN(CC)CCCNc1ccc(-c2nnc(-c3ccc(OCC(C)C)cc3)o2)cn1	inconclusive: 7.08 µM [inhibitor, full curve, poor fit]	–
O=C1C=C(Nc2cccc(Cl)c2)CC(c2ccco2)C1 (stereo not drawn)	inconclusive: 3.98 µM [inhibitor, full curve, poor fit]	–
CCCn1cc(C(CC(=O)O)C(=O)O)c2ccccc21 (stereo not drawn)	inconclusive: 89.1 µM [inhibitor, single point]	–
Cc1ccccc1OCC(=O)NCCN1CCCC1	inconclusive: 89.1 µM [inhibitor, single point]	–
CCOc1ccccc1NC(=O)C(NCCN(C)C)c1ccccc1 (stereo not drawn)	active: 50.1 µM	–
COc1ccc(-c2oc3ccccc3c2C(=O)Oc2ccccc2)cc1	–	inactive: 51.1%
CC1CCCCN1CCCNc1ccc(C(CC(N)=O)NC(=O)c2ccccc2)cc1[N+](=O)[O-] (stereo not drawn)	inconclusive: 89.1 µM [inhibitor, single point]	–
O=C(Cn1ncc(Cl)c(Cl)c1=O)N1CCN(S(=O)(=O)c2ccc3ccccc3c2)CC1	–	inactive: 11.2%
COc1cccc(C(=O)OCCN2CCOCC2)c1	–	inactive: -15.5%
CN=C1S/C(=C\c2ccc(N3CCOCC3)cc2C)C(=O)N1C	–	inactive: -4.3%
CC(=O)NS(=O)(=O)c1ccc(NC(=O)c2cc3c(=O)n4ccccc4nc3s2)cc1	–	inactive: -32.3%
Cc1ccc(C)n1-c1ccc(N2CCOCC2)c([N+](=O)[O-])c1	inconclusive: 50.1 µM [inhibitor, partial curve]	–
CCOC(=O)C1CCN(C(=O)Cn2ncc3c4ccccc4n(Cc4ccc(F)cc4)c3c2=O)CC1	–	inactive: -5.03%
Cc1ccc(S(=O)(=O)c2nc(S(=O)(=O)c3ccccc3)sc2N2CCN(C)CC2)cc1	inconclusive: 50.1 µM [inhibitor, partial curve]	–
O=C(c1cccnc1)N1CCN(Cc2cccc(Br)c2)CC1	–	inactive: 19.4%
